Measured values taken from patent publication US20170306038A1, “COMPOSITIONS AND METHODS OF USE FOR AUGMENTED IMMUNE RESPONSE AND CANCER THERAPY” (priority 2014, published 2017).

Tests used:
human GITR = target: T1, human GITR (Homo sapiens, UniProt Q9Y5U5); assay: ELISA binding to GITR extracellular domain, human
T1 construct: coated with rat, mouse, human or cyno GITR extracellular domain (ECD) at 50 ng per well
T1 sequence (Q9Y5U5 26-162 limits assumed): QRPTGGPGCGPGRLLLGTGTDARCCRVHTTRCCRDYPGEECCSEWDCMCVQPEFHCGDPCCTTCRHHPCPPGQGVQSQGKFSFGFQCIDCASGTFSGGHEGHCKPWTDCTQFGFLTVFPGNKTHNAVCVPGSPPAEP
Procedure: (§1) Binding of the MABs to GITR from various species, various alanine mutant constructs or GITR extracellular domain—was assessed using a 384-well plate was coated with rat, mouse, human or cyno GITR extracellular domain (ECD) at 50 ng per well and incubated overnight at 4° C. The plate was blocked with a solution of 1% BSA in PBS for one hour at room temperature and then rinsed three times with PBST. The MAB was then diluted to 0.5 μg/mL or 1 μg/mL in PBS and 20 μL was added to each well. The plate was incubated for 1 hour at room temperature and then washed three times with PBST. Anti-human kappa antibody (Sigma #A7164), anti-human gamma antibody (Jackson Immunoresearch 109-036-098), goat anti-mouse antibody (Jackson ImmunoResearch 115-035-071) conjugated to HRP was diluted 1:5000 in Blocking Buffer (25 μL) and added to each well, or a hrp conjugated HIS antibody (QIAGEN 1014992) diluted 1:1000 in Blocking Buffer was added. The plate was incubated for 1 hour at room temperature, and then washed six times with PBST. 25 μL of SureBlue TMB (KPL 52-00-02) substrate was added to each well and the plate was incubated for about 10 min at room temperature. Plates were read at 650 nm in a spectrophotometer.

cyno CD4+ Tcells = assay: FACS binding to isolated cyno PBMCs; set-up: species or system cynomolgus; conditions: FACS of isolated PBMCs
Procedure: Cynomolgus monkey PBMCs were prepared and GITR binding determined using MABs. Briefly, cynomolgus blood was transferred into 50 mL conical tubes (Falcon, #352098), then diluted 1:2 in PBS (HyClone, #SH30256.01) and mixed. Diluted blood was carefully layered on top of 18 mL of 90% Ficoll Paque PLUS (GE Healthcare #17-1440-03 diluted in PBS), and tubes were spun at 2,000×g in a bench top centrifuge for 30 minutes at room temperature, with no brake. The plasma layer was carefully removed without disturbing the diffuse PBMC layer on top of the Ficoll. PBMCs were then carefully harvested and PBS was added to the isolated PBMCs until the volume in the conical tube was 45 mL, mixed, and then spun at 300×g in a bench top centrifuge for 15 minutes at room temperature. Supernatant was carefully aspirated and 4 mL of 1×BD Lysing solution (BD #555899) was added and the samples were gently vortexed. […]
Plates were prepared with cells resuspended in 200 μL of cold PBS. […] Plates were covered with foil (Beckman Coulter, #538619) and stored at 4° C. until ready to read. On the day of FACS read the plate was spun in a bench top centrifuge at 3,200 RPM for 1 minute and 50 μL of CML latex beads (Life Technologies #C37259), 4×10^5/mL in FACS Buffer, was added to each well. The plates were read on a BD Fortessa flow cytometer and data analyzed using FlowJo.

human CD4+ Tcells = assay: FACS binding to isolated human PBMCs; conditions: FACS of isolated PBMCs
Procedure: Plates were prepared with cells resuspended in 200 μL of cold PBS. […] Wash and resuspension in 100 μL of antibody cocktail (PerCP Cγ5.5 anti-human CD3 (BD #552852), Alexa Fluor 700 anti-human CD4 (BD #560836), V450 anti-human CD8 (BD #561426), PE-Cγ7 anti-human CD25 (BD #561405) and PE anti-human in FACS Buffer (Jackson Immuno #109-116-098)) followed and plates were then incubated for 30 minutes on ice protected from light and then spun in a bench top centrifuge at 3,200 RPM for 1 minute at 4° C. Cells were washed in FACS Buffer then resuspended in 100 μL of BD CytoFix (BD #554655) and plates were incubated for 15 minutes at room temperature protected from light then washed twice and resuspended in 100 μL of FACS Buffer. Plates were covered with foil (Beckman Coulter, #538619) and stored at 4° C. until ready to read. On the day of FACS read the plate was spun in a bench top centrifuge at 3,200 RPM for 1 minute and 50 μL of CML latex beads (Life Technologies #C37259), 4×10^5/mL in FACS Buffer, was added to each well. The plates were read on a BD Fortessa flow cytometer and data analyzed using FlowJo.

cynomolgus GITR = assay: ELISA binding to GITR extracellular domain, cyno
Procedure: as §1

[1] = test system: human PBMCs (CD4+ and CD8+ T cells); assay: Bead-conjugated antibody co-stimulation of CFSE labelled human PBMCs; assay type: cell-based
Procedure: Agonist activity of MABs could also be seen on primary T cells that express endogenous levels of GITR via proliferation and cytokine secretion from primary T cells. MABs were conjugated on to M-280 Tosylactivated beads (Invitrogen #142.04) following the manufacturer's instructions. In some experiments agonist CD3 (OKT3) and CD28 (CD28.2) antibodies were also conjugated to beads. 1×10^5 freshly purified CFSE-labelled human PBMCs were plated in 10 uL of CTL Test media (CTL #CTLW-010) into a 96 well round bottomed tissue culture plate. 100 uL of MAB conjugated beads was then added at a ratio of 1 T cell: 1 beads. Plates were then incubated for 3 days in a 37° C. tissue culture incubator. Levels of secreted cytokines in the media were measured using a MSD multiplex assay according to manufacturer's instructions. Cells were stained with anti-CD4, -CD8a, -CD25, -GITR antibodies and a LIVE/DEAD stain after staining cells were fixed and read on the flow cytometer. Proliferation of each CD4 and CD8 cells was assessed by CFSE staining and counting beads were added prior to the FACS read to allow normalization of the samples.

rodent GITR = assay: ELISA binding to GITR extracellular domain, rodent; set-up: species or system rat, mouse
Procedure: as §1

[2] = beads with anti-CD3, anti-CD28 and MAB, compared to isotype control antibody

B1: MAB7: MAB4 variant with glycation site KH changed to RH; heavy chain SEQ ID NO:100, light chain SEQ ID NO:66 (antibody)
heavy: EVQLVESGGGLVQSGGSLRLSCAASGFSLSSYGVDWVRQAPGKGLEWVGVIWGGGGTYYASSLMGRFTISRDNSKNTLYLQMNSLRAEDTAVYYCARHAYGHDGGFAMDYWGQGTLVTVSSASTKGPSVFPLAPSSKSTSGGTAALGCLVKDYFPEPVTVSWNSGALTSGVHTFPAVLQSSGLYSLSSVVTVPSSSLGTQTYICNVNHKPSNTKVDKRV[human IgG1 Fc not printed]
light: EIVMTQSPATLSVSPGERATLSCRASESVSSNVAWYQQRPGQAPRLLIYGASNRATGIPARFSGSGSGTDFTLTISRLEPEDFAVYYCGQSYSYPFTFGQGTKLEIKRTVAAPSVFIFPPSDEQLKSGTASVVCLLNNFYPREAKVQWKVDNALQSGNSQESVTEQDSKDSTYSLSSTLTLSKADYEKHKVYACEVTHQGLSSPVTKSFNRGEC
- binding to human GITR in ELISA (human GITR): binding human
- binding to cyno CD4+ Tcells (cyno CD4+ Tcells): binds
- binding to human CD4+ Tcells (human CD4+ Tcells): binds
- binding to cynomolgus GITR in ELISA (cynomolgus GITR): binding human and cyno GITR
- secretion of cytokines (IFNγ, TNFα, IL-10, IL-13) ([1]; beads with anti-CD3, anti-CD28 and MAB): an increase in the secretion of several cytokines
- proliferation of CD4+ T cells [1, 2]: induces an increase in proliferation
- proliferation of CD8+ T cells [1, 2]: induces an increase in proliferation
- dependence of proliferation and IFNγ production on anti-CD3 and anti-CD28 co-stimulation ([1]; co-stimulatory antibodies omitted: no agonist effects): dependent upon the presence of anti-CD3 and anti-CD28 agonistic antibodies
- binding to rodent GITR in ELISA (rodent GITR): not murine GITR
